PubChem BioAssay AID1768 (National Center for Advancing Translational Sciences (NCATS), 2009)
About 620 (0.23%) of roughly 270,000 compounds were called active. Inconclusive results, whose numbers are uncertain, are shown with a selection of clear calls. Calls come from the whole dose curve; as a rule, active = well fitted inhibition curve with a large enough effect in the polarisation, with a control signal flat (not every such curve was filed as active); inconclusive = small, poorly fitted or top-dose-only effect, or effect the other way, or a change in a side signal; inactive = no such curve, though single readings can be large or run the other way; the % refers to the polarisation. Potencies of inconclusive entries are doubtful fits and often do not repeat. “Side channel” marks fits to a control or component signal instead of the main read-out.

Molecular target: Menin (Homo sapiens) (UniProt O00255)
Sequence of UniProt O00255 (O00255 whole entry, looked up): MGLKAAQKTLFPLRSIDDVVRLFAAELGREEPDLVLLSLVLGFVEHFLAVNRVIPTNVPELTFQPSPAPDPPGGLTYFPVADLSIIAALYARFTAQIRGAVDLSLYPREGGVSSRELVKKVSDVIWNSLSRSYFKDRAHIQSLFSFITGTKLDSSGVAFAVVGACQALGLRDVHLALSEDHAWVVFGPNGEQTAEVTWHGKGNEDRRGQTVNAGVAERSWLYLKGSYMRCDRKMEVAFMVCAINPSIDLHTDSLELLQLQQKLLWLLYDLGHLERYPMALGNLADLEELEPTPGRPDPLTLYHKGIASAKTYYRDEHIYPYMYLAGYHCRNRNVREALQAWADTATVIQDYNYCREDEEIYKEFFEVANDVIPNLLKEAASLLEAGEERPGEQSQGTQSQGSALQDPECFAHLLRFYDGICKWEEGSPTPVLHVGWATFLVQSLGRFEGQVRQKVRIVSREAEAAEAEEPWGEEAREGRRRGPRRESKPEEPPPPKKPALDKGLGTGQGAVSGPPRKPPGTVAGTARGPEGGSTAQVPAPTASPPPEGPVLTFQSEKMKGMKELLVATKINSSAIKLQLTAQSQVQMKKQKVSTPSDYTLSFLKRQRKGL
Test: qHTS Assay for Inhibitors Targeting the Menin-MLL Interaction in MLL Related Leukemias: Competition With Texas Red Labeled MLL-derived Mutant Peptide
Details: fluorescence polarization; series mostly up to 61.6 µM
Potency is the fitted concentration of half-maximal effect; tags give direction and shape of the fitted curve or compound fluorescence and quenching.

Potency, inconclusive:
C[C@@H]1C(c2ccc(F)cc2)=NN(c2ccccc2)[C@H]1C(=O)N1CCOC1=O 14.1 µM [quencher, side channel, partial curve]
Cc1ccc([N+](=O)[O-])cc1N=Nc1c(-c2ccc([N+](=O)[O-])cc2)[nH]n(C(N)=S)c1=O 2.24 µM [quencher, side channel, full curve]
Fc1cccc(CSc2ccc(-c3ccco3)nn2)c1 28.2 µM [quencher, side channel, single point]
COc1ccccc1NC(=O)c1ccccc1NC(=O)c1cc(Cl)ccc1NC(=O)c1ccco1 12.6 µM [inhibitor, partial curve]
COc1cc([N+](=O)[O-])ccc1NC(=O)Nc1ccc2c(c1)OCCO2 12.6 µM [quencher, side channel, partial curve]
CN(C)S(=O)(=O)N(CC(=O)N1CCC(Cc2ccccc2)CC1)c1ccccc1 10 µM [inhibitor, partial curve]
C#CCOCCOCCOCCNc1nc(N2CCN(C(=O)[C@H](Cc3ccc(O)cc3)n3cc([C@@H](N)CC(C)C)nn3)CC2)nc(N2CCN(C(=O)[C@H](Cc3cc4ccccc4[nH]3)n3cc([C@@H](N)CC(C)C)nn3)CC2)n1 0.794 µM [fluorescent, side channel, full curve]
COc1cc(CCC(=O)OCC(=O)Nc2ccc(C)cc2Br)cc(OC)c1OC 15.8 µM [inhibitor, partial curve, poor fit]
O=C(NC(=S)NCc1ccco1)c1ccc(Br)cc1 22.4 µM [inhibitor, single point]
COc1cccc(-c2coc3cc4oc(=O)c(CCC(=O)O)c(C)c4cc23)c1 0.891 µM [inhibitor, partial curve]
COc1ccc(NC(=O)c2sc3nc(N4CCOCC4)c4c(c3c2N)CCCC4)c(OC)c1 7.08 µM [quencher, side channel, partial curve]
CS(=O)(=O)Nc1cccc(-c2ccc3ncnc(NCc4cccs4)c3c2)c1 28.2 µM [quencher, side channel, single point]
CC(=O)C(=Cc1cc(C)n(-c2ccccc2)c1C)C(C)=O 17.8 µM [fluorescent, side channel, partial curve]
COc1cc(/C=C2/SC(=S)N(c3c(C)n(C)n(-c4ccccc4)c3=O)C2=O)ccc1O 15.8 µM [fluorescent, side channel, partial curve]
Cc1sc(NC(=S)NC(=O)c2cccs2)nc1-c1ccc(CC(C)C)cc1 2 µM [quencher, side channel, full curve]
CCC(=O)Nc1c(-c2cccs2)c(=O)c2ccccc2n1C 8.91 µM [inhibitor, single point]
COc1ccc(/C=C/c2nc(-c3ccccc3O)n[nH]2)cc1OC 12.6 µM [quencher, side channel, partial curve]
O=C(Cc1ccccc1)NCC(=O)N1CCc2ccccc2C1 25.1 µM [inhibitor, single point]
CCCC(=O)Nc1nc2ccc(S(=O)(=O)N3CCCCC3)cc2s1 14.1 µM [quencher, side channel, partial curve]
COc1cc(NC(=O)c2cc3ccccc3o2)ccc1NC(=O)c1ccco1 39.8 µM [inhibitor, single point]
O=C(CSCC(=O)Nc1ccccc1)N/N=C/c1c(O)ccc2ccccc12 15.8 µM [quencher, partial curve]
Cc1ccc(-c2c3c([nH]c(=S)c2C#N)CCCC3)o1 31.6 µM [quencher, side channel, single point]
COC(=O)c1ccc2[nH]c3cccc(/C(=C/c4ccccc4)c4ccccc4)c3c2c1 5.62 µM [inhibitor, full curve, poor fit]
CCCNC(=O)NC(C)C12CC3CC(CC(C3)C1)C2 (stereo not drawn) 28.2 µM [fluorescent, side channel, single point]
CCCCCC(=O)Nc1nc(C)c(-c2csc(Nc3cc(Cl)ccc3OC)n2)s1 8.91 µM [quencher, partial curve]
O=C(Nc1cccc(Cl)c1)c1ccc2c(=O)n3c(nc2c1)CCCCC3 3.16 µM [quencher, side channel, full curve, poor fit]
CCNc1nc(NCC)nc(C(=O)NN)n1 39.8 µM [inhibitor, single point]
COc1cccc(/C=c2\s/c(=C\C(=O)C(C)(C)C)[nH]c2=O)c1 22.4 µM [quencher, side channel, single point]
COC(=O)c1cn(NC(=O)c2cc(OC)cc(OC)c2)c(=O)c2ccccc12 25.1 µM [quencher, side channel, single point]
Oc1c(I)cc(I)c2cccnc12 28.2 µM [quencher, side channel, partial curve]
CC(C)(O)c1[nH]c2cc(F)ccc2c1C(C)(C)O 28.2 µM [quencher, side channel, single point]
CC1CCN(c2nnc(N3CCC(C)CC3)c3ccccc23)CC1 2.51 µM [fluorescent, side channel, full curve]
Cc1cccc2c1N(C)C(=O)C2=O 14.1 µM [inhibitor, partial curve, poor fit]
CCOc1ccc(OCC)c(-c2c(=O)n(OCc3ccccc3C(=O)OC)c3ccccc3[n+]2[O-])c1 4.47 µM [inhibitor, full curve, poor fit]
Cc1ccc(NC(=O)C(C)c2ccc([N+](=O)[O-])cc2)cc1Cl (stereo not drawn) 25.1 µM [quencher, side channel, partial curve]
CCN(CC)S(=O)(=O)c1ccc(Cl)c(NC(=O)COC(=O)c2ccc(O)cc2)c1 28.2 µM [quencher, side channel, single point]
O=C1CCN(Cc2ccccc2)CCN1[C@H](CSc1ccccc1)Cc1ccccc1 5.01 µM [fluorescent, side channel, full curve, poor fit]
CCOC(=O)[C@]1(C(NC(=O)OC)c2cccc(F)c2)CCCC1=O (stereo partly drawn) 0.282 µM [quencher, side channel, full curve, poor fit]
Cc1ccccc1NC(=S)NCc1ccc2[nH]c3c(c2c1)CCCC3 22.4 µM [quencher, side channel, partial curve]
O=C(Nc1ccc2c(c1)CCC2)c1cccc(S(=O)(=O)N2CCN(c3ccc(F)cc3)CC2)c1 35.5 µM [inhibitor, single point]
CCOC(=O)c1c(C)n2c3c(cc(C)cc13)CCC2 35.5 µM [fluorescent, side channel, single point]
COc1cc(NC(=O)COC(=O)/C=C/c2ccc(OC)c(OC)c2)cc(OC)c1 28.2 µM [quencher, side channel, partial curve]
COc1ccc(Nc2nc(Cl)c(C=O)s2)cc1 22.4 µM [quencher, side channel, single point]
CCOC(=O)C1(Cc2ccccc2)CCCN(C(=O)C=C(C)C)C1 (stereo not drawn) 25.1 µM [inhibitor, partial curve]
Nc1c(SCCC(=O)O)ccc2c1C(=O)c1ccccc1C2=O 28.2 µM [fluorescent, side channel, partial curve]
COc1ccc(C2c3ccc4ccccc4c3Oc3ncn(CCCN(C)C)c(=N)c32)cc1 (stereo not drawn) 17.8 µM [fluorescent, side channel, partial curve]
COC(CNC(=O)c1ccc(Cn2c(=S)[nH]c3cc4c(cc3c2=O)OCO4)cc1)OC 5.01 µM [inhibitor, single point]
CC(=O)n1cc([C@@H]2C=C(C(=O)N3CCN(Cc4ccccc4)CC3)O[C@H](OCc3ccc(CO)cc3)C2)c2ccccc21 1.78 µM [fluorescent, side channel, full curve, poor fit]

Potency, inactive:
Cc1cccc(OCC(=O)Nc2ccc(NC(=O)c3ccco3)c(C)c2)c1
CC(=O)Nc1ccc(C(=O)Nc2ccc(S(=O)(=O)N3CCOCC3)cc2)cc1
Cn1c(N)c(S(=O)(=O)c2ccc(Br)cc2)c2nc3ccccc3nc21
CCc1c2c(nc3cccc(SC)c13)COC2
COc1cccc(-c2nnc3n2N=C(c2c(OC)cccc2OC)CS3)c1
CCn1nc(C)c(Oc2ccccc2O)c1C
COc1ccc(/C=C/C(=O)OCCC(C)C)cc1
O=[N+]([O-])c1ccc(Oc2cccc3cccnc23)c([N+](=O)[O-])c1
C[N+]1(CC(=O)OCCCc2ccccc2)CCOCC1
Cc1nc2c(c(=O)[nH]1)CSCC2
